Assay results published in the supplement of paper PMC11417369.
± gives the standard deviation of the averaged measurements. The list shows a part of the results.

These sequences were tested on PfAP2-LT AP2 domain (GST-tagged) (assay: gcPBM binding intensity (ln(normalized median fluorescence intensity)); higher = stronger DNA binding).
Outline: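 GST-tagged P. falciparum DNA-binding domains produced in E. coli were incubated for 1 h on an Agilent 4 × 180k array of primer-extended double-stranded 36-bp intergenic genomic probes with negative controls. Binding intensity is the highest Masliner-normalised natural-log median intensity across replicate spots of either probe orientation, with bound protein detected by Alexa488 anti-GST antibody at 488 nm.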

Sequence | gcPBM binding intensity (ln)
TTATATGAATTTTAGATTTATAATACAAGAATATTC [CACACA_negctrl_site70] | 8.2 ± 0.39
ATTTCGAATATTAAGTGTACAATATAAATATATAAA [XGTACX_site6674] | 8.63 ± 0.35
ATATTATATAATATACGTACATATATTATGCATAAA [XGTACX_site7895] | 8.78 ± 0.35
ATTAAATACATTAACACACACACAAATATGTACATA [CACACA_site7372] | 9.68 ± 0.26
TACGTAGCCACACTAACACACACAAATATGCACAAT [CACACA_site8942] | 9.54 ± 0.39
TTTTTTTCTGTGAGTGCATGTAATAAAATAAATTTA [TGCATGCA_site276] | 8.2 ± 0.29
TGTTATTTTAAAAAAAAAATTATTAACTTAAAAAAA [CACACA_negctrl_site1641] | 7.87 ± 0.42
TTCAAAAATATATAATGTACACAAATATAAAAGAAT [XGTACX_site1944] | 8.93 ± 0.38
ATCATAATCATAAAAAGTACAAACGATAAAATAAAT [XGTACX_site3832] | 9.13 ± 0.37
TTACTTAAGAAACACACACACAAAAAAAAAAAAAAA [CACACA_site946] | 9.32 ± 0.39
TATGTAAAAAATTTAACACACACATATATATATATA [CACACA_site8829] | 9.6 ± 0.24
TATTATTCATAATTTATCTTTTAAATTAAATCACAA [GTGCAC_negctrl_site288] | 8.03 ± 0.38
TATTTATAATAGTGTACACAATTATAAACTGAATAT [CACACA_site6041] | 8.77 ± 0.42
CAACATATATTAATATGTACATATATATAGATATAT [XGTACX_site4107] | 8.81 ± 0.44
AATTAAATTAGAAGCACACACATATTTATATTTATA [CACACA_site7552] | 9.08 ± 0.35
ATACACTCACTCACACGTACAGACAACGGACGATCA [XGTACX_site1097] | 9.09 ± 0.4
GTATATATTTAAACACGTACACAAAACCCAAAAAAT [XGTACX_site8110] | 9.13 ± 0.4
ATAAAACAATAAAATTGTACATAAATTGATTATACT [XGTACX_site6723] | 8.81 ± 0.42
GAATAAATAGACGAGTGTACTTTTTTTTAAAAAAAA [XGTACX_site7880] | 8.61 ± 0.54
ACGTTTACGTTATTATGTACGTAATATATCATACCT [XGTACX_site5006] | 8.84 ± 0.49
TGAGAGTTCTCATATGCACACAAAAAACTTTCATTT [CACACA_site7898] | 8.84 ± 0.37
TACATATACATATACACACACACACCCAAATAAATA [CACACA_site1344] | 10.04 ± 0.05
TTGCAACTCTTCAATCGTACACATTATTTATTATAT [XGTACX_site1377] | 8.95 ± 0.33

Sequence | gcPBM binding intensity (ln)
AAATATTTTTTTTCTACACACATACAAATATATATT [CACACA_site5325] | 9.02 ± 0.45
AATAATAACACCGTGGATACACAATAACAAAGAACT [CACACA_negctrl_site532] | 9.37 ± 0.43
TTTCATTTAGCTTTTACACACTATATATCATTGATT [CACACA_site6158] | 9.12 ± 0.49
AAATAAAAAAGTAGTACACACTTCACGATATTTTTT [CACACA_site6015] | 8.79 ± 0.4
AAAAATATAAACTGCACACACACAAAAAAAGAAAAA [CACACA_site648] | 9.79 ± 0.33
TTTTTTTTAAAAAACACACACCTAAACAAGATATTT [CACACA_site6541] | 8.78 ± 0.2
CATATTTTTAAATACACACACATAAAAAAAAAAAAA [CACACA_site1095] | 9.12 ± 0.47
AATCTAATATAATGCACACATAAAAAAAAAATCAAA [CACACA_site2714] | 9.03 ± 0.45
TATATTTACAATAAAACGTTATTTTTTGTTATTTTC [CACACA_negctrl_site612] | 8.66 ± 0.4
TATATACATATATGTACACACATTACAGATGTACAT [CACACA_site966] | 9.21 ± 0.38
TTATTATAATCATTAGTGCATATATTATTTTTATAT | 8.66 ± 0.45
TTAATATAATAAAATCGTACAAATAAAATATAAAAT [XGTACX_site8730] | 8.92 ± 0.33
AAAAATGAGAAACACACACACATATATATATATATA [CACACA_site2228] | 9.94 ± 0.19
AAAAAAAAAAAAGATACACACAAAAATGGATATATA [CACACA_site7069] | 8.94 ± 0.49
AACCAATATGAGTATACACACATAAATATAAATATA [CACACA_site5968] | 9.24 ± 0.44
ATATATATATATCACCGTACTTATATAATAACATGA [XGTACX_site4398] | 9.11 ± 0.13
TAATTATTCTATTAAGTGCATATATTTTTAAAAAGA | 8.21 ± 0.45
TTTTTTTTTTATTTTTGTACATATATTTCAGTATTA [XGTACX_site8396] | 8.75 ± 0.52
ACAGATATATTTATTTGTACATATCACCAAAATGGA [XGTACX_site5644] | 8.55 ± 0.4
ATAATATTCGAGTGTGCACACAAACATACATATATA [CACACA_site3396] | 9.68 ± 0.44
ATACAGAAAAAAAACACACACACATAATATACATAC [CACACA_site1933] | 9.84 ± 0.16
ATTTTTATTAAAATATGTACGTATTTTACTCATACA [XGTACX_site5330] | 8.86 ± 0.43
TACAGATATTATTGCACACATATAAAATACCCCCAA [CACACA_site6014] | 9.43 ± 0.4

Sequence | gcPBM binding intensity (ln)
TTACGTTATATACATACACACCCACGCACAAAAAAA [CACACA_site6537] | 9.29 ± 0.11
ATTAAATACTTCGATTGTACAATTTTTTTTTTTTTT [XGTACX_site832] | 8.59 ± 0.58
TAAGAATAATGACATAGTACAATTTAATAGATCTAA [XGTACX_site3670] | 8.66 ± 0.49
TTTTCAAAATAATATTATATCAAATGCTAAAAAGAA [TGCATGCA_negctrl_site588] | 8.4 ± 0.35
AAGTTTATTTGTTGCACACATATAAGTAGAGAAAAT [CACACA_site3027] | 8.94 ± 0.42
GTATGTATATATGTATGTACTTATGTATCATTATTA [XGTACX_site2438] | 8.95 ± 0.39
TAATATTTATGTTAATGTACAAAAAAACAAAACAAA [XGTACX_site301] | 8.59 ± 0.48
ATAATATATATTAAACGTACATAAAATAATTATGGA [XGTACX_site1670] | 8.82 ± 0.4
TTTGTATAATACATGTGTACGTATTTTTATATAAAT [XGTACX_site8656] | 8.77 ± 0.36
TTATCATTATATAGTTGTACATATTTATTTATAAAA [XGTACX_site2310] | 8.45 ± 0.44
AGAACTAAAAGAACATGTACATAAATTCTAAATAAT [XGTACX_site4084] | 8.84 ± 0.49
ATGATACTAAAAAATTGTACATATAACAAAAGGTAT [XGTACX_site2527] | 8.93 ± 0.39
CATATATTTTGAAACACACACATATATAATATACAT [CACACA_site1158] | 9.24 ± 0.3
ATAACAAAATGAAGAGTGCATTACCAAGTGGGTAAA [GTGCAC_site9450] | 8.96 ± 0.52
ATATTTAAGGCGTGTATGCACACGACTATTCCGTAT [CACACA_site1080] | 9.15 ± 0.28
TTAATTTGTTCTTACACACACATATAAATATATTTA [CACACA_site6676] | 9.03 ± 0.32
TATTTTGTTTTAAAAGTACACACTTTTAATTAGATT [CACACA_site1180] | 8.63 ± 0.51
AAAAAAAAAAGAAACACACACATATATATATAGAAT [CACACA_site1777] | 9.44 ± 0.39
CATACCTTTTAATGTACACACATTTCTTTTTTGTTA [CACACA_site892] | 9.1 ± 0.42
TTATATGGATATACAGTGCATATATACATATAAGTG | 8.86 ± 0.47
AATATATATACTATAACACACATACACCCAAAAAAA [CACACA_site4453] | 9.43 ± 0.19
TATATGTATTTGTATACACACAAATGTATATATTTA [CACACA_site1265] | 8.84 ± 0.41
ATGTATTAAAATTTATGTACTTATATATAAATATAT [XGTACX_site1025] | 8.6 ± 0.49

Sequence | gcPBM binding intensity (ln)
TATAAACATAATATTTAACACACATGAAGATGTATA [CACACA_site8252] | 8.74 ± 0.4
TATATATTGTTATATACACACATGTATTTAAAAAAT [CACACA_site5737] | 8.72 ± 0.34
ATTATTATATATGTATGTACTTATATAATATATATA [XGTACX_site5198] | 8.66 ± 0.42
TCTGTTAAACAAAAAAGTACTAAAATAATGTAAAAT [XGTACX_site6826] | 8.71 ± 0.47
TTAACAAAACATAAGGTGCTTAAAATTTTATATCAC [GTGCAC_site9839] | 8.6 ± 0.39
TACCTATATAGACACACACACATATATTTATTTATA [CACACA_site6728] | 9.52 ± 0.33
ATATGTACAAGTGTTTATGCTGAACGGAAATCCTGT [CACACA_negctrl_site1372] | 8.92 ± 0.4
TTTTTTTTTATATAAAAAAAAATTTTTATTATTTTA [GTGCAC_negctrl_site347] | 8.04 ± 0.49
TTCTCCTAATAGTTAGTGCACTACATAACTAAGAAA | 8.46 ± 0.38
ATAATTGTCCATTTTTTCTTTTTTTTTTTCTTTTTA [CACACA_negctrl_site928] | 8.66 ± 0.54
AAAAAAAAAAAAAAAACACACATTTAGCAATCTACA [CACACA_site3706] | 8.82 ± 0.4
ATATGATCATACTGTGCATGTTAATGCAAATTTTAT [TGCATGCA_site984] | 9.07 ± 0.51
TACATATATTATACATGTACACATTTATACATATCG [XGTACX_site2866] | 9.04 ± 0.34
AATACAATTTATAACACACACACAAGAATACCTATA [CACACA_site6705] | 9.73 ± 0.26
TTTGTATCTATATATTGTACGAATTACTTTCATTTA [XGTACX_site4785] | 8.85 ± 0.47
TCTTTTTAAGGGATTTTTTTTTTTTTTTTAAAAAGA [CACACA_negctrl_site1274] | 7.88 ± 0.45
TATACATACATTAGACGTACACATTTTACCTACACC [XGTACX_site3586] | 9.09 ± 0.34
TATTATGTATGTATATGTACGTATCTTATTTTATTT [XGTACX_site5008] | 9.06 ± 0.61
TTTTTTGTATTTTTCACACACACATAAGTAAACAAT [CACACA_site1900] | 9.28 ± 0.46
AAATATAGAATACATGTGCACATAATATATATATAT | 9.26 ± 0.26
AAATTATTATATATATGTACGTATAATGTATTTTGT [XGTACX_site2903] | 8.95 ± 0.38
